Data on 9 molecules can be found in PubChem BioAssay (NCATS).

Experiment [1] can be described thus: qHTS Assay for Lipid Storage Modulators (AID 1519). The note with it: Drosophila S3 cells, BODIPY lipid droplet/cell ratio, laser cytometry, cells loaded with oleic acid. In short, it runs like this: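 Cells seeded at 5,000 per well were treated with compounds over a concentration series and loaded with oleic acid (400 uM, as added). Lipid droplet fluorescence (488 nm excitation, 500-530 nm channel) was read by laser-scanning cytometry and normalized to 20 uM Triacsin C.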

The nature of experiment [2]: qHTS Assay for Modulators of Human Peripheral Myelin Protein 22 (PMP22) Expression/Activity (AID 1967). The note with it: Cell-based PMP22 reporter, dual-color luciferase ratio. In short, it runs like this:
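Mouse MSC80 Schwann cells carrying Pmp22 promoter–green click beetle luciferase plus EF-alpha–red luciferase control, dosed 24 h at 37 °C. Dual-filter luminescence, overlap-corrected; %Activity from green/red ratio normalised to untreated cells, concentration-response curves fitted.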
Background: In qHTS, concentration-response curves come from the screen itself.

Experiment [3] addresses Catechol O-methyltransferase (Homo sapiens) (UniProt P21964). Kind of experiment: Confirmatory Screen for Target Class Profiling of Small Molecule Inhibitors of Methyltransferases (AID 1745852).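 Further: inhibitor potency for blocking SAH production.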 Conditions: MTase-Glo luminescence, SAH detection, recombinant enzyme; measured here: COMT inhibition potency.
UniProt P21964, sequence (P21964 whole entry, looked up): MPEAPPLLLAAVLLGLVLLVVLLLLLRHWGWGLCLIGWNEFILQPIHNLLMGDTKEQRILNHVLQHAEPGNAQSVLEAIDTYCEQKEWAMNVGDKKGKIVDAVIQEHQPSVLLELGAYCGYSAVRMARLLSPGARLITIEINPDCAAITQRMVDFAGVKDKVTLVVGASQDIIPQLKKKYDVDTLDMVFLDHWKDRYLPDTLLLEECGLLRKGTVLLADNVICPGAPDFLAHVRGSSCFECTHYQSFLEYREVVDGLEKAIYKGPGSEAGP
Experiment [4] has as its target Histamine N-methyltransferase (Homo sapiens) (UniProt P50135). The description is as above. The note with it: MTase-Glo luminescence, SAH detection, recombinant enzyme; measured here: HNMT inhibition potency.
UniProt P50135, sequence (P50135 whole entry, looked up): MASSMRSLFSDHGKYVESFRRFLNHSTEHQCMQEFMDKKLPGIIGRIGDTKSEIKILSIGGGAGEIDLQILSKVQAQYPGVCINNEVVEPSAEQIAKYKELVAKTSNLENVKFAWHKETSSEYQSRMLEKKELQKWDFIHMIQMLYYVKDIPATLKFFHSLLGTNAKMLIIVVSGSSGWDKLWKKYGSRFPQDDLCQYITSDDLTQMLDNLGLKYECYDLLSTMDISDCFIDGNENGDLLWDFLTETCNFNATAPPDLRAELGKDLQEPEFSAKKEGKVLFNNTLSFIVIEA
Experiment [5] in a line: NCATS anti-infectives library activity on the primary C. elegans qHTS viability assay (AID 1745855). The note with it: C. elegans worm area imaging, day 7, measured here: worm number. In short, it runs like this:
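GFP read-out by 488 nm laser cytometry at day 0, 3 and 7, gated on object perimeter, area and peak intensity, scored viability of PE254-GFP-FLuc worms exposed to compound in S medium with bacterial capsules at 21 °C.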

Experiment [6] can be described thus: A High-Content qHTS Against Drug Library for the Identification of Small Molecules that Inhibit DYT1 Early Onset Primary Dystonia-Associated Cell Pathology (AID 1645839). Conditions: HEK293 Flp-In EGFP-delE TorsinA, punctate imaging, 48 h; measured here: cell count cytotoxicity. In short, it runs like this:
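Cells were seeded and left for 24 h, then dosed with compound alongside tetracycline induction of mutant EGFP-TorsinA. They were incubated for 48 h, fixed in 4% paraformaldehyde, permeabilized and imaged for mislocalization (%pathology) and cell count.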

A short description of experiment [7]: qHTS for identification of novel therapeutic agents for treatment of microphthalmiaassociated transcription factor (MiT) renal cell carcinoma (RCC) (AID 1963991).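 On z-score: curves scaled with 100% = DMSO viability and 0% = empty wells.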 Conditions: CellTiter-Glo, 48 h; for z-score: stronger effect = lower value. In short, it runs like this:
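UOK109/UOK124/UOK145 (TFE3 fusions, three partners); 500 cells/well; MIPE v4.0, 1912 cpds, 11 conc.; 48 h, 37 C; CellTiter-Glo, 15 min RT; lum. Norm.: DMSO 100%, empty 0%.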

Experiment [8] in a line: qHTS Assay for Inhibitors of PDE-IV (AID 607).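 Further: parental cells stimulated with forskolin 10 µM plus RO 20-1724 100 µM.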 Conditions: HEK293 ACTOne CNG channel cells, membrane potential fluorescence; measured here: parental cell counter-screen. In short, it runs like this:
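The readout is membrane depolarisation from a cAMP-sensing CNG channel, detected with a potential dye at ex 535/em 590. Cells were HEK293-derived (endogenous PDE-IV) at 1000 cells/well, titrated up to 22.9 uM final.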

Experiment [9] in a line: qHTS Validation Assay to Find Inhibitors of Chronic Active B-Cell Receptor Signaling (AID 485345). Conditions: ABC-DLBCL cells, chronic BCR signaling reporter. In short, it runs like this:
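TMD8 ABC-DLBCL cells stably carrying doxycycline-inducible IkappaBalpha–green luciferase fusion plus unfused red luciferase; compounds 46 uM to 3 nM, 4 h at 37C with doxycycline. Corrected green/red luminescence ratio normalized to 10 uM MG-132 and basal cell wells; curves fitted.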

Experiment [10] can be described thus: qHTS assay for small molecule antagonists of peroxisome proliferator-activated receptor delta signaling (AID 588535).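 Further: cells co-treated with a PPAR-delta agonist as stimulator during compound exposure.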 Conditions: HEK293T PPARd-UAS-bla, beta-lactamase FRET ratio, 18 h; 460 nm channel. In short, it runs like this:
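Fluorescence from CCF4-loaded GeneBLAzer PPAR-delta-UAS-bla HEK293T cells (2 hrs RT loading) quantified reporter inhibition after an 18 hr, 37 C compound exposure across a titration.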

Experiment [11] in a line: qHTS assay for small molecule antagonists of peroxisome proliferator-activated receptor gamma signaling (AID 588537). Conditions: HEK293 PPARg-UAS-bla, beta-lactamase ratio, antagonist mode; measured here: W460 blue channel. In short, it runs like this: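 Fluorescence at 460 and 530 nm (405 nm excitation) reported beta-lactamase cleavage of CCF4 after 2 h room-temperature loading. HEK293 reporter cells in 1% charcoal/dextran-treated FBS had received compound and rosiglitazone for 16 h.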

Experiment [12] is described as follows: qHTS assay for small molecule agonists of retinoid X receptor alpha signaling (AID 588544). Conditions: HEK293T RXRa-UAS-bla, beta-lactamase reporter, 18 h; 530 nm emission.
Experiment [13] in a line: qHTS assay for small molecule antagonists of retinoid X receptor alpha signaling (AID 588546).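 Further: cells stimulated with 9-cis-retinoic acid as agonist; on the % scale 0 is the no-effect control and ±100 the full control effect.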 The note with it: HEK293T RXRa-UAS-bla, beta-lactamase ratio, antagonist mode; measured here: W530 green channel, cytotoxicity proxy. In short, it runs like this: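 Beta-lactamase reporter inhibition, read as CCF4 fluorescence ratio (ex 405, em 460/530 nm) after 2 h at RT. HEK293T UAS-bla cells, 2500/well, were stimulated with 9-cis-RA at 500 or 100 nM final alongside test compound for 18 h at 37 C.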

In experiment [14] the target is Nicotinamide N-methyltransferase (Homo sapiens) (UniProt P40261). Kind of experiment: Confirmatory Screen for Target Class Profiling of Small Molecule Inhibitors of Methyltransferases (AID 1745852).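 Further: inhibitor potency for blocking SAH production.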 Conditions: MTase-Glo luminescence, SAH detection, recombinant enzyme; measured here: NNMT inhibition potency.
UniProt P40261, sequence (P40261 whole entry, looked up): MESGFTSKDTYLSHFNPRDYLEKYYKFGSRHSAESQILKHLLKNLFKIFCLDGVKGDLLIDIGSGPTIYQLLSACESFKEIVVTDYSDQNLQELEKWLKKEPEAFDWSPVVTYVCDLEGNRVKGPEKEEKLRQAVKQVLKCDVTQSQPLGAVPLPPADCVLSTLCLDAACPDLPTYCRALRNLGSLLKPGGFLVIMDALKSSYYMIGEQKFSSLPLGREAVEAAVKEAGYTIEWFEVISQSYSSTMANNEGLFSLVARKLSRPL
Experiment [15] can be described thus: Nrf2 qHTS screen for inhibitors: Validation (AID 493153). The note with it: A549 ARE-Fluc reporter, 18-24 h; AC50: CellTiter-Fluor fluorescence read, measured here: cytotoxicity CellTiter-Fluor AC50; viability change: measured here: cytotoxicity max response. In short, it runs like this:
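Concentration-response on A549 ARE_Fluc reporter cells exposed 18-24 h at 37 C, 5% CO2. Cytotoxicity read first by CellTiter-Fluor fluorescence (Ex 405/Em 525), then Nrf2 inhibition by BugLite luminescence after 15 min.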

Where [16] appears, read: measured here: cell count channel max response.
[17] abbreviates: measured here: cell number channel AC50.
The mark [18] stands for this setting: measured here: lipid (BODIPY) channel AC50.
Where [19] appears, read: measured here: lipid channel max response.
The mark [20] stands for this setting: measured here: red reporter channel AC50, EF-alpha promoter control reporter in MSC80 mouse Schwann cells.
The mark [21] stands for this setting: measured here: green reporter channel AC50, mouse Pmp22 promoter in mouse Schwann cells.
The mark [22] stands for this setting: TFE3-RCC UOK109 viability, measured here: UOK109 Z-AUC.
The mark [23] stands for this setting: TFE3-RCC viability, measured here: UOK124 Z-AUC.
[24] abbreviates: TFE3-RCC viability, measured here: UOK145 Z-AUC.
The mark [25] stands for this setting: TFE3-RCC viability, measured here: UOK145 cell viability.

“And” between values parts separate entries of the source, which are not always exact repeats. Equal values may be shown once. The list shows a part of the results. Further columns of the screen follow, without active or inactive calls. The list favours compounds with an active or inconclusive main result. For part of these data: Words in brackets tell the shape of the fitted curve; partial curves, single points and poor fits give uncertain potencies.
Tags describe the fitted curve by direction and shape.

What is called AC50 is the midpoint of the concentration-response curve, whichever way the signal moves. For orientation: IC50 means the concentration at which inhibition is half-maximal. As to `Oc1cc2c(c(Cl)c1O)CCNCC2c1ccccc1` (stereo not drawn), the max response in experiment [1] (setting [16]) amounted to 51.1%; in experiment [1] (setting [19]), 52.7%. The AC50 in experiment [1] (setting [17]) is 22.4 µM [rising, partial curve, poor fit]; in experiment [1] (setting [18]), 22.4 µM [rising, partial curve, poor fit]; in experiment [2] (setting [20]), 37.9 µM [falling, partial curve]. The IC50 in [3] was 24.3 µM [rising, partial curve]; in [4], 19.3 µM [falling, partial curve].

On to `CN(C)CCCN1c2ccccc2Sc2ccc(C(F)(F)F)cc21`, for which the max response in experiment [1] (setting [16]) came out at 52.4%; in experiment [1] (setting [19]), 57.5%. Besides, the AC50 in experiment [1] (setting [17]) is 3.16 µM [falling, full curve, poor fit]; in experiment [1] (setting [18]), 3.16 µM [falling, full curve, poor fit]; in [2] (setting [21]) it was 30.1 µM [falling, full curve]; in experiment [2] (setting [20]), 26.9 µM [falling, full curve]; in [5], 4.59 µM [falling, full curve, poor fit].

As for `CCCCc1oc2ccccc2c1C(=O)c1cc(I)c(OCCN(CC)CC)c(I)c1`, the max response in experiment [1] (setting [16]) was -12.4% and -38.5%; in experiment [1] (setting [19]), -22.3% and -40.7%. Further, the half-maximal activity concentration (AC50) was 0.00224 µM [rising, full curve, poor fit] in experiment [1] (setting [17]); 25.1 µM [falling, partial curve, poor fit] in experiment [1] (setting [18]); 21.3 µM [falling, full curve] in [2] (setting [21]); 19 µM [falling, full curve] in experiment [2] (setting [20]); 7.94 µM [falling, partial curve] in experiment [6]; 33.2 µM [falling, single point] in experiment [7] (TFE3-RCC viability, measured here: UOK124 cell viability). Besides, the AC50 in experiment [7] (setting [25]) was 4.18 µM [falling, full curve]. The z-score in experiment [7] (setting [22]) was -1.39; in experiment [7] (setting [23]) it was 0.446; in experiment [7] (setting [24]), -0.916.

In the case of `CCCc1c(-c2ccc(O)cc2)nn(-c2ccc(O)cc2)c1-c1ccc(O)cc1`, the AC50 in experiment [8] is 15.8 µM [rising, single point]; in experiment [1] (setting [17]), 0.355 µM [falling, full curve, poor fit]; in experiment [1] (setting [18]), 0.355 µM [falling, full curve, poor fit]; in experiment [2] (setting [21]), 53.6 µM [falling, partial curve]; in [2] (setting [20]) it was 42.6 µM [falling, partial curve]; in experiment [9] (measured here: CBG/CBR ratio read-out), 16.4 µM [falling, partial curve]. Also, the AC50 was 16.4 µM [falling, single point] in experiment [9] (measured here: CBR control luciferase (viability counter)) and 31.6 µM [falling, partial curve, poor fit] in experiment [11]. In addition, the max response in [1] (setting [16]) is 98.5% and -21.8%; in [1] (setting [19]), 126% and -20.3%; in [10], 84.5%; in [12] it was -29.2%; in experiment [13], -48.4%. In addition, in experiment [14], the IC50 is 27.3 µM [falling, partial curve].

As for `CN1CCC[C@@H]1CCO[C@](C)(c1ccccc1)c1ccc(Cl)cc1`, the AC50 in [8] was 12.6 µM [rising, partial curve, poor fit] and 7.94 µM [rising, single point] and 15.8 µM [rising, partial curve]; in experiment [1] (setting [17]), 35.5 µM [rising, partial curve]; in experiment [1] (setting [18]), 35.5 µM [rising, partial curve]; in experiment [6], 7.08 µM [falling, partial curve]. The max response in experiment [1] (setting [16]) was 96.2%; in [1] (setting [19]) it was 125%.

Regarding `Cc1ncc([N+](=O)[O-])n1CCO`, the figures for the max response in experiment [1] (setting [16]) and in [1] (setting [19]) were 3.94% and 4.92%, respectively. Besides, the AC50 in [1] (setting [17]) is 0.0141 µM [rising, partial curve, poor fit]; in experiment [1] (setting [18]) it was 2 µM [rising, partial curve, poor fit]; in experiment [11], 70.8 µM [rising, single point]; in experiment [6] it was 35.5 µM [rising, partial curve, poor fit]; in experiment [7] (setting [25]), 0.0132 µM [rising, full curve]. The z-score was -0.534 in experiment [7] (setting [22]), 0.817 in experiment [7] (setting [23]) and -0.414 in experiment [7] (setting [24]).

Consider `CN1C(C(=O)Nc2ccccn2)=C(O)c2ccccc2S1(=O)=O`, for which the max response in [1] (setting [16]) was 32.9% and 22.7% and -17.4%; in [1] (setting [19]) it was 47.7% and 32.5% and -17.9%. Further, the AC50 in experiment [1] (setting [17]) is 8.91 µM [rising, full curve, poor fit] and 5.01 µM [falling, full curve, poor fit]; in experiment [1] (setting [18]), 10 µM [rising, full curve, poor fit] and 11.2 µM [rising, partial curve, poor fit] and 5.01 µM [falling, full curve, poor fit]; in [6], 3.55 µM [rising, full curve, poor fit]; in experiment [7] (setting [25]), 37.2 µM [falling, partial curve, poor fit]. Moreover, the viability change in experiment [15] is -2.87%. For the same molecule, the z-score is -0.501 in [7] (setting [22]), 0.524 in experiment [7] (setting [23]) and -0.0479 in experiment [7] (setting [24]).

Regarding `CC(=O)N[C@@H](CS)C(=O)O`, the max response in experiment [1] (setting [16]) is -41.8%; in [1] (setting [19]) it was -43.1%. Also, the half-maximal activity concentration (AC50) in [1] (setting [17]) was 7.94 µM [falling, full curve, poor fit]; in [1] (setting [18]), 12.6 µM [falling, partial curve, poor fit]; in experiment [11], 0.00158 µM [falling, full curve, poor fit]; in experiment [6], 11.2 µM [falling, partial curve, poor fit].

In the case of `CNCC[C@@H](Oc1ccccc1C)c1ccccc1`, the AC50 in experiment [8] is 15.8 µM [rising, single point]; in experiment [1] (setting [17]) it was 8.91 µM [rising, full curve]; in experiment [1] (setting [18]), 12.6 µM [rising, partial curve, poor fit]; in experiment [6], 11.2 µM [falling, partial curve, poor fit]. Also, the values for the max response in experiment [1] (setting [16]) and in experiment [1] (setting [19]) were 55.2% and 89.7%, respectively.
